The whole screen tested about 390,000 compounds, of which about 1,400 (0.36%) were called active. This list was built around the results that the source calls inconclusive (neither active nor inactive); the mix of calls is not that of the screen. The call rests on the fitted dose curve; in most records, active means well fitted inhibition curve with a large enough effect; inconclusive means small, poorly fitted or top-dose-only effect; inactive means no such curve, though single readings can be large or run the other way. Potencies of inconclusive entries are doubtful fits and often do not repeat.
target: Flap endonuclease 1 (Homo sapiens) (UniProt P39748); assay: qHTS Assay for the Inhibitors of Human Flap endonuclease 1 (FEN1).; further: nearly all actives have a fitted effect of over 65% in size; settings: Recombinant FEN1 flap cleavage, fluorescence, 15 min; series mostly up to 114 µM; activity change, negative = inhibition: at the top concentration
Sequence of UniProt P39748 (P39748 whole entry, looked up): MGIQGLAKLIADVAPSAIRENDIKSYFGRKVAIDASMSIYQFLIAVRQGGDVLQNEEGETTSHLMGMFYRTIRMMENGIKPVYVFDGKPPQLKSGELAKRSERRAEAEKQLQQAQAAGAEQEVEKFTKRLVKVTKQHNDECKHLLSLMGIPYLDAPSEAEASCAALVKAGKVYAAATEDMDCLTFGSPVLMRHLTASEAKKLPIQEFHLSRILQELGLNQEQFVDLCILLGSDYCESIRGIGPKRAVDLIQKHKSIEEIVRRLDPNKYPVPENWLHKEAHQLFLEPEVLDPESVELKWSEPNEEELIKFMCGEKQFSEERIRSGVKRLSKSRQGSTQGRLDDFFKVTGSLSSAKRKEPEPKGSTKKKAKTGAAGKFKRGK
Procedure, shortened: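 Reaction started by adding substrate (50 nM final) to 10 nM enzyme after 15 min room-temperature compound preincubation. Reads at 0 and 15 min, with data normalized and fitted to a four-parameter Hill equation.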
On the % scale 0 is the no-effect control and ±100 the full control effect; potency means the concentration at half of the fitted maximal effect; tags describe the fitted curve by direction and shape.

Row | Compound | Potency | activity change, negative = inhibition
1 | CN(CC(=O)Nc1ccc2c(c1)CCC2)CC(=O)Nc1ccccc1Br | inconclusive: 89.1 µM [inhibitor, single point] | 
2 | S=C(NCCCc1cnc[nH]1)NCCCN(Cc1ccc(Cl)cc1)c1ccc(Br)cc1 | inconclusive: 79.4 µM [inhibitor, partial curve, poor fit] | 
3 | COc1ccc(S(=O)(=O)n2nc(-c3ccc(Cl)cc3)cc2N)cc1OC | inconclusive: 22.4 µM [inhibitor, single point] | 
4 | O=C(NC1CCCC1)c1ccc2nc(-c3ccco3)c(-c3ccco3)nc2c1 | inconclusive: 56.2 µM [inhibitor, partial curve] | 
5 | Cc1ccc(-n2nc3cc(C)c(N)cc3n2)cc1 |  | inactive: -13%
6 | O=C(NCCCCc1ccccc1)c1cccc([N+](=O)[O-])c1 | inconclusive: 79.4 µM [inhibitor, partial curve, poor fit] | 
7 | Cc1nc2cc(-c3ccc(Cl)cc3)nn2c(NCCN(C)C)c1C | inconclusive: 89.1 µM [inhibitor, single point] | 
8 | CCc1ccc(C(C)NC(=O)/C(C#N)=C\c2cn[nH]c2-c2ccccc2)cc1 (configuration not stated) | inconclusive: 79.4 µM [inhibitor, partial curve, poor fit] | 
9 | COc1ccc(SN=C2C(C)=CC(=O)C=C2C)cc1 |  | inactive: -13%
10 | COc1cc(O)c(CCC(=O)c2ccc(OC)c(OC)c2)c(OC)c1 | inconclusive: 79.4 µM [inhibitor, partial curve, poor fit] | 
11 | O=C(Nc1cccc(NC(=O)c2cccs2)c1)c1ccc([N+](=O)[O-])o1 | inconclusive: 79.4 µM [inhibitor, partial curve, poor fit] | 
12 | CCOc1c(CC2C(=O)Nc3ccc(Br)cc32)cccc1OC (configuration not stated) | inconclusive: 89.1 µM [inhibitor, partial curve, poor fit] | 
13 | Nc1cccc(-c2nc3ccc(C(=O)c4ccccc4)cc3[nH]2)c1 | inconclusive: 70.8 µM [inhibitor, partial curve, poor fit] | 
14 | COC(=O)C1=C[C@@H](C(=O)OC)C2C3=C(C(=O)[C@]2(C)NC(=O)c2ccccc2)[C@H](C)[C@@H]2C(=O)N(C)C(=O)[C@@H]2[C@@H]3C1 (some centres not stated) |  | inactive: -7.7%
15 | COc1ccc(Nc2nc(N3CCCC3)c3ccccc3n2)cc1 | inconclusive: 50.1 µM [inhibitor, partial curve] | 
16 | COc1ccc2cc3cc(C(=O)NCc4cccs4)oc3nc2c1 | inconclusive: 79.4 µM [inhibitor, partial curve, poor fit] | 
17 | COc1ccc(COc2cc(-c3cccc(OC)c3)nc3ccc(N)cc23)cc1 | inconclusive: 79.4 µM [inhibitor, partial curve, poor fit] | 

Reference: PubChem BioAssay AID588795 (National Center for Advancing Translational Sciences (NCATS), 2011)
